The whole screen tested about 220,000 compounds, of which about 16,000 (7.3%) were called active. The inconclusive results got no clear call from the source; some entries with a clear call stand among them for comparison. The call rests on the fitted dose curve; in most records, active means well fitted inhibition curve with a large enough effect (not every such curve was filed as active); inconclusive means small, poorly fitted or top-dose-only effect, or another doubt; inactive means no such curve, though single readings can be large or run the other way. Potencies beside an inconclusive call are fits to weak or partial responses and may not hold up.
Biological target: Aldehyde dehydrogenase 1A1 (Homo sapiens) (UniProt P00352)
Assay: qHTS Assay for Inhibitors of Aldehyde Dehydrogenase 1 (ALDH1A1);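 on activity, negative = inhibition: plate controls were no enzyme wells and a reference inhibitor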
Conditions: Purified ALDH1A1, NADH fluorescence, propionaldehyde substrate; series mostly up to 75.3 µM; activity, negative = inhibition: at the top concentration
Potency means the concentration at half of the fitted maximal effect; tags describe the fitted curve by direction and shape.

UniProt P00352, sequence (P00352 whole entry, looked up): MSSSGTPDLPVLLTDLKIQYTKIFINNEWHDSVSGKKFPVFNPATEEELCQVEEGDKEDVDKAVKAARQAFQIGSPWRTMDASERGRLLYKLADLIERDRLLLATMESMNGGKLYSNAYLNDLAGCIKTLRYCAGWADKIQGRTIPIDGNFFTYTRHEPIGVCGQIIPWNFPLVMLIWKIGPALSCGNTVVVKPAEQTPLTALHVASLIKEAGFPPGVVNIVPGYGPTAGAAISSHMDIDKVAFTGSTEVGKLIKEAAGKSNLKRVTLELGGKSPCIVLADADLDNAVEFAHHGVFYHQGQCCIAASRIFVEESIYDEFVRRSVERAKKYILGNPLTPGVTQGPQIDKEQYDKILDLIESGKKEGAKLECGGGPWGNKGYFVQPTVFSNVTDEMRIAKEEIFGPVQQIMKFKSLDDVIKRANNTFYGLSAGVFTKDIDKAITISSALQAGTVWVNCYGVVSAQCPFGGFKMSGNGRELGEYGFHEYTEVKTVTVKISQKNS

Potency, inconclusive:
CCOC(=O)Cc1csc(NC(=O)CSc2nnnn2-c2ccc(C)c(C)c2)n1 15.8 µM [inhibitor, partial curve], COC(=O)CCC(=O)NC(=S)Nc1sc(C)c(C)c1C(N)=O 25.1 µM [inhibitor, single point], O=C(CCSCc1ccccc1)Nc1ccc2c(c1)OCCO2 22.4 µM [inhibitor, single point], COc1cccc(N/C(SCc2ccccc2F)=C(/C#N)C(=O)NCc2cccs2)c1 22.4 µM [inhibitor, partial curve], O=C(NCc1cccnc1)c1cc(-c2ccco2)on1 39.8 µM [inhibitor, single point], CCOC(=O)c1cnc(Nc2nc3ccccc3o2)nc1CN1CCN(C)CC1 39.8 µM [inhibitor, single point], O=C1C2CCCN2C(c2ccccc2F)N1c1ccc(F)cc1 (stereo not given) 39.8 µM [inhibitor, single point], Cc1cc(OCC(=O)N(C(C)C)C(C)C)cc(C)c1Br 25.1 µM [inhibitor, single point], O=C(CSc1nnc(-c2cccnc2)n1Cc1ccco1)N1CCc2ccccc21 39.8 µM [inhibitor, single point], CCOC(=O)c1c(-c2ccc(C)o2)csc1NC(=O)CN1CCCCC1 11.2 µM [inhibitor, partial curve], Clc1ccccc1-c1nnc2sc(-c3ccc4c(c3)OCO4)nn12 25.1 µM [inhibitor, partial curve], Cc1ccc(Cn2cccc(-c3nc4ccccc4s3)c2=O)cc1 22.4 µM [inhibitor, partial curve], N#C/C(C(=O)N1CCCCC1)=C1\Nc2ccccc2S1 39.8 µM [inhibitor, single point], Cc1ccccc1OCCn1cc(C(=O)C(=O)N2CCOCC2)c2ccccc21 28.2 µM [inhibitor, single point], Cc1cccc(C)c1-n1c(C)nn(Cc2ccc([N+](=O)[O-])cc2)c1=O 44.7 µM [inhibitor, single point], CCN(CC)C(=O)CN1C(=O)C2(NC(=O)c3ccccc3N2)c2ccccc21 (stereo not given) 35.5 µM [inhibitor, single point], CSc1nc2nccc(/C=C\c3ccccc3)n2n1 39.8 µM [inhibitor, single point], COc1ccc(S(=O)(=O)NCC(=O)N(CC(=O)NC(C)(C)C)Cc2cccs2)cc1 28.2 µM [inhibitor, single point], FC(F)(F)Oc1ccc(-c2cn3cccnc3n2)cc1 14.1 µM [inhibitor, partial curve], COCCn1c(=O)c(-c2cccs2)nc2cnc(N(C)C)nc21 39.8 µM [inhibitor, single point], CCOC(=O)CNC(=O)Cn1c(C)cc2ccccc2c1=O 39.8 µM [inhibitor, single point], Cc1ccccc1OCCN(C#N)c1nc(N(C)C)nc(N(C)C)n1 23.8 µM [inhibitor, single point], COc1ccccc1C(=O)Oc1cc(N)n(S(=O)(=O)c2ccc(C)cc2)n1 12.6 µM [inhibitor, partial curve], Cc1ccc(-n2c(C)cc(C(=O)OCC(=O)N(CC(C)C)C3CCS(=O)(=O)C3)c2C)cc1 (stereo not given) 7.94 µM [inhibitor, full curve], COc1ccc(-c2cnc(-c3cccnc3)o2)cc1 28.2 µM [inhibitor, partial curve], CCOc1ccc(/C=N/n2nnnc2N)cc1O 23.8 µM [inhibitor, partial curve], O=c1[nH]c2ccccc2c(=O)n1Cc1ccccc1 31.6 µM [inhibitor, partial curve], Cc1ccccc1OCC(=O)Nc1ccc2oc(=O)ccc2c1 39.8 µM [inhibitor, single point], COC(=O)[C@@H](NC(=O)N1CCc2nc(-c3ccc(OC)cc3C)c3c(c2C1)CO[C@@H](c1ccccc1)C3)C(C)C 2.82 µM [inhibitor, partial curve], O=C(Oc1cccnc1)c1cc2ccccc2oc1=O 39.8 µM [inhibitor, single point], C=CCn1c(SCc2cc(=O)n3ccsc3n2)nc2ccccc2c1=O 39.8 µM [inhibitor, single point], Cc1oc2c(CN3CCCC3)c(O)ccc2c(=O)c1-c1ccc(Br)cc1 28.2 µM [inhibitor, partial curve], Cc1ccccc1C(=O)N1CCN(c2ccc(NC(=O)c3ccco3)cc2Cl)CC1 0.0316 µM [inhibitor, full curve], O=C(CN1CCN(c2ccc(O)cc2)CC1)NC(=O)NCc1ccco1 39.8 µM [inhibitor, single point], CCOC(=O)C1=C(O)/C(=C\c2sccc2C)N=C1C 37.7 µM [inhibitor, single point], O=C(Nc1cccc(S(=O)(=O)N2CCCC2)c1)c1ccc2c(c1)OCO2 25.1 µM [inhibitor, single point], N#CC1=C(N)Oc2n[nH]c(-c3cccnc3)c2C1c1cc(F)ccc1F (stereo not given) 20 µM [inhibitor, single point]

Potency, active:
COc1ccccc1-n1c(C)cc(C=O)c1C 14.1 µM, CC1CCCC(NC(=O)CNC(=S)N(Cc2ccccc2)Cc2cccs2)C1C (stereo not given) 12.6 µM, O=C(CSc1nnnn1-c1ccccc1)N1CCc2ccccc2C1 20 µM, Cc1ccc(S(=O)(=O)Nc2ccc(O)c3ncccc23)cc1 1.26 µM, CCOC(=O)C1=C(SCC(=O)Nc2ccccc2)NC(=O)C(C#N)C12CCCCC2 (stereo not given) 12.6 µM, CC1(C)CC(=O)CC(=O)/C1=N\Nc1c(Cl)cc(Cl)cc1Cl 6.31 µM, Cc1ccnc(SCc2cc(=O)c(OC(=O)c3ccc(Cl)c([N+](=O)[O-])c3)co2)n1 7.51 µM, CCC(=O)Nc1ccc2c(c1)C(=O)c1ccccc1C2=O 7.94 µM, Cc1ccccc1CSCCNC(=O)CCSc1ccccc1 7.08 µM, COc1ccc(S(=O)(=O)N2CCC(C(=O)Nc3ccccc3C)CC2)c2cccnc12 22.4 µM, COc1cc(C2c3c(oc4ccccc4c3=O)C(=O)N2Cc2ccncc2)ccc1O (stereo not given) 25.1 µM, Cc1c(NC(=S)N/C(=N/S(=O)(=O)c2ccc(Cl)cc2)c2ccccc2)c(=O)n(-c2ccccc2)n1C 8.91 µM, CCCC(=O)Nc1cc(-c2nn(C)c(=O)c3ccccc23)ccc1N1CCOCC1 28.2 µM

Potency, inactive:
CCCCC/C=C\C/C=C\C/C=C\C=C\C(=O)CCCC(=O)O

activity, negative = inhibition, inactive:
COc1ccc(CCNC(=O)CSc2ccsc2[N+](=O)[O-])cc1OC -11.6%, Cc1cc(C)cc(/C=C/C2OCC(O)C2Oc2ccc(C3CCCC3)cc2)c1 (stereo not given) -0.547% [at 13.5 µM], CCn1c(SCC(=O)Nc2ccccc2C(=O)OC)nnc1-c1ccc(N)cc1 2.98%, CC1(C)C(=O)C=C[C@@]2(C)C1C=C[C@@]1(C)C2CC[C@@]2(C)C(c3ccoc3)OC(=O)C3OC312 (stereo not given in full) -8.79%, Cn1c(Sc2nc3ccccc3n2C)nc2ccccc21 13.2%, COc1cc(OC)cc(C(=O)Nc2nc(-c3ccccc3)c(-c3ccccc3)o2)c1 -10.9%, O=C(COc1ccc(/C=N/NC(=O)C(=O)N2CCCCCC2)cc1)Nc1ccccc1Cl -1.3%, Cc1nn2cc(-c3ccc(Cl)cc3)cnc2c1Br 8.36%, O=C(NC1CC1)c1ccc(C2SCC(=O)N2Cc2ccccc2)cc1 (stereo not given) 3.08%, CCn1c(CNS(=O)(=O)c2ccc(Cl)cc2)n[nH]c1=S -6.02%, Cc1onc(-c2ccccc2)c1C(=O)NNC(=S)NC(=O)/C=C/c1cccs1 -4.55%, CCn1c(SC(C)C(=O)O)nc2sc3c(c2c1=O)CCC3 (stereo not given) -5.38%, CC(=O)N1CCN(C(=S)NC(=O)C23CC4CC(CC(C4)C2)C3)CC1 -13.5%, O=C(CCCNS(=O)(=O)c1ccc(Br)cc1)N1CC[C@@]2(O)CCCC[C@H]2C1 -5.02%, CC(NCc1ccc(F)cc1)C(=O)NC1CCCCC1 (stereo not given) 3.4%, COC(=O)c1ccc(C(NC(=O)OCc2ccccc2)/C(=C/[C@@H](C)C(=O)NCCc2c[nH]c3ccccc23)c2cccnc2)cc1 (stereo not given in full) -4.59%, COc1ccc(NC(=O)C2=C(C)C(=O)OC23CCC(C)CC3)c(OC)c1 (stereo not given) -0.943%, CCCCn1c(SCC(=O)N2c3ccccc3CCc3ccccc32)nc2c1c(=O)n(C)c(=O)n2C -14.1%, COC(=O)C(Cc1ccc(O)cc1)NC(=O)CCC(=O)Nc1ccc(S(N)(=O)=O)cc1 (stereo not given) 17.5%, C[C@H](C(=O)O)c1cccc(Oc2ccccc2)c1 3.64% [at 20.9 µM], CC(=O)N/N=C/c1cc(C(C)(C)C)cc(/C=N/NC(C)=O)c1O 51.6%, COC(=O)C/C=C/C(C)C(OC)c1ccccc1Br (stereo not given) 4.46% [at 13.5 µM], CN1CCCN(C)C1c1cc([N+](=O)[O-])ccc1O 11.7% [at 13.5 µM], C=CCC(O)(CC=C)C(C)N (stereo not given) 11.7%
